Test results: the supplement of paper PMC4466236
Whole data set: some 33,000 sequences, median “E-score (dimensionless, -0.5 to 0.5)” near -0.058, cut for the highest 2% near 0.35. The list shows a part of the results.

These sequences were tested on MvaT (assay: PBM 8-mer E-score (mean of HK and ME arrays) (E-score (dimensionless, -0.5 to 0.5)); higher = stronger relative binding preference; most listed sequences are background and not binding sites).
In short: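 Full-length P. aeruginosa MvaT carrying an N-terminal glutathione S-transferase tag was tested by protein binding microarray following a previously described protocol. Two universal double-stranded 60-mer arrays, ME and HK, were used, each with a constant 25-mer primer region and a variable 35-mer region covering all 8-mers. The rank-based E-score is the mean of the two arrays, parsed with a custom script. Its range runs from -0.5 to 0.5 for each 8-mer.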

Sequence | PBM 8-mer E-score
AAGTTCAA | 0.398
AATCTCCC | -0.126
CTATAAAG | 0.0669
GATTTGCC | 0.0159
ATAGCTAG | -0.054
CGAGAGGA | -0.212
GTCAAGGA | -0.0943
GCTAACCC | -0.198
CCCAGCAA | -0.107
AGTTGACC | 0.0343
CCAGAGAC | -0.0283
GATTTCTA | 0.00839
CATTGCAG | -0.114
CGACGGTA | -0.063
AATGCGCT | 0.0594
ACGAATGG | -0.099
CAACGCTA | -0.173
CTTTGGGC | -0.209
CGCAACCA | -0.0649
ATTCGGTA | 0.108
GACTCATC | 0.00578
CAGGTGCC | -0.397
ACGCACGG | -0.17
AAAGAAGT | 0.286
ACTGAGCA | -0.286

Sequence | PBM 8-mer E-score
CAACTTGA | 0.122
ATGGGGGA | -0.204
GTCGATAA | 0.14
AGATGGAC | -0.18
ACACAGCT | -0.0991
TAGGTGCA | -0.0271
CCAACAAA | 0.14
GAAGATTA | 0.282
AACGAATT | 0.285
TCATCACA | -0.0864
AAACCTAA | 0.0741
ACAGGAAG | -0.0109
GAAGAACA | 0.0478
AAGAACCA | -0.00894
AATACGCT | 0.0617
AATTCAGT | 0.203
CAGGGAAC | -0.181
TGCGACCA | -0.185
GGCTCCGA | -0.207
AAATGTGC | 0.076
TCTCGGAA | -0.00286
AATTAAGG | 0.37
CATTCGAG | -0.124
CGTGCAGA | -0.175
CCGTGTGA | -0.199

Sequence | PBM 8-mer E-score
AGCCAAAG | -0.214
ATTCGGAC | -0.172
GGCACCAA | 0.0494
GATGTAGA | 0.0574
GGTCTACA | -0.0706
AAAGCTCG | -0.0433
GTAAATGA | 0.222
AACGCAAC | 0.136
ACTAATAT | 0.407
ATCGGTCG | -0.163
CGGGACAA | -0.0691
AATTACAT | 0.327
GGTCACTA | -0.322
GTTGGTGA | -0.0719
ATTTGAGG | 0.0579
ACATGAAA | 0.205
CATATGGC | -0.0576
CAGATGGC | -0.333
CCAGAACG | -0.0882
ACCGGTCA | -0.0672
ATCGCCCG | -0.113
AGCAGGCT | -0.175
AATTGCCC | 0.166
CTGACTTA | 0.23
ACTTCTCT | 0.161

Sequence | PBM 8-mer E-score
ACTGTCAA | 0.101
ATAGAGCG | 0.0311
CTTGAGTC | -0.108
ATGGTGCA | 0.0587
CTTACATC | 0.0502
GAGACGGA | -0.227
TACCGTGA | -0.0697
CAGCTGTA | -0.11
CACCGGTA | -0.107
TATTCGAA | 0.308
AATGTACT | 0.207
CTAGTCCC | -0.241
TGACGGCA | -0.21
CAACAGAC | -0.0196
CAGAAAAC | 0.0433
GTCAACAC | 0.0224
ACGGCTCG | -0.135
GGTACACC | -0.146
AATAGAAT | 0.292
ATCACTAG | -0.00249
CCATCGTC | -0.16
CACTGGTA | -0.126
GTACGCAC | -0.088
GAGTCCAA | -0.0567
AATTGCTC | 0.0445

Sequence | PBM 8-mer E-score
ACTGATCA | -0.0902
ATGACCGC | -0.166
CTTTCCGA | -0.0238
CGCGAACA | -0.0487
CATCGCAG | -0.137
GCCGTCCA | -0.163
AGACGCTG | -0.127
GGGTGTTA | 0.0651
CCGCTTTA | -0.00314
GCCCGAAA | -0.0858
ATAGATTA | 0.256
AACGACAA | 0.186
AAATGATG | 0.127
GACGGAGC | -0.217
ACAATCAA | 0.21
CCCTAGCG | -0.293
AATGCTCA | -0.000671
CCGTTATC | 0.0929
AGCGAAGG | -0.172
CTCCCTAA | -0.204
CACATTCG | -0.104
ATTACCGA | 0.0931
AGTCCACG | -0.2
ATCGGTGA | -0.0992
AGATTATC | 0.255

Sequence | PBM 8-mer E-score
CACGGGTC | -0.226
CGCCCCTC | -0.202
GGATTCCA | -0.172
GACGGTAC | -0.169
CACCATGA | -0.146
ATCACATA | 0.198
CAGATCTA | -0.0186
GATGAGCC | -0.34
ATGATAAC | 0.178
GGCTTCCA | -0.217
ACAACGTC | -0.207
ATGCAACG | 0.0758
AGGTATGA | 0.12
CAACCATA | 0.0988
CTCAGTCC | -0.348
CGCGTGCA | -0.0926
CGAATCAA | 0.0229
CAGCTATA | 0.205
GCGTAAGC | -0.291
CCGTGTAG | -0.151
ATGCATAG | -0.0132
CGCTAAGA | -0.0481
GCCTCTAC | -0.193
GAAGCGCA | -0.0875
AGCCCTTA | -0.174

Sequence | PBM 8-mer E-score
GTCGTAAC | -0.0622
ACCGATAA | 0.168
AGGGTCAA | -0.196
CCAGCAGC | -0.187
ATAAGTTA | 0.441
GGTAATAC | 0.249
AGCTCTAC | -0.218
ACTAGCAG | -0.0293
CTGTAGTC | 0.0136
CCGAGAAA | 0.014
ATGCTGCC | -0.046
CCTTGCCA | -0.127
ATACTAAG | 0.272
GAATTCCC | 0.0328
AGTGTCGG | -0.00106
CCTGTACG | -0.125
CAATCGGA | -0.0769
CACGTCGG | -0.201
CACGCCAA | 0.0357
ACGTCAGT | -0.127
GACGTATA | 0.155
AGTGGTTC | -0.0509
TTACCAAA | 0.233
GATGAGGC | -0.316
ATAAAAGC | 0.2

Sequence | PBM 8-mer E-score
CCGATCGC | -0.21
AGAGAATC | -0.11
CGAACACA | -0.0305
TCATCGAA | -0.15
AGTATGAT | 0.247
GGGAGATA | -0.15
GGATTGCA | 0.0859
AAAGGTGA | -0.0481
ACGTTTTG | 0.112
CGCGGTTA | 0.0149
GGCGAGCA | -0.176
GTCTAAAA | 0.109
CCGGTGAG | -0.252
GCTAATAA | 0.338
AGAAAAGG | -0.129
GATGATAC | -0.0969
TACATACA | 0.301
ATAAACGG | 0.217
AATCGTGA | -0.12
CGGCGACG | -0.124
CGCGTTAA | 0.183
CCTATCCG | -0.119
GCCCGCGC | -0.262
AATCGTCA | -0.12
CAGGCAGG | -0.314

Sequence | PBM 8-mer E-score
ACCGTAGG | -0.125
CACCCCTG | -0.268
AATTCATC | 0.115
GTTCACCA | 0.0831
GCGAAGAC | -0.222
CGTTCTTC | -0.142
GAAAACCC | -0.0978
AGCCCCAG | -0.25
AATGAGCA | -0.108
CCCCACCG | -0.286
GATATTGC | 0.14
CGGGCATC | -0.216
GATAATAA | 0.404
CGGAAGTA | 0.131
CCGTAGAG | -0.205
CGCTAAAC | -0.00507
CAGTAAGC | 0.0448
ATGCCCAG | -0.185
GCCGAAGC | -0.257
